# Patent US20180164324A1 (INSERM INSTITUT NATIONAL DE LA SANT ET DE LA RECHERCHE M …, published 2018)
# T1: Rho-binding domain of Rhotekin (RBD)-GFP11
# T1 chain: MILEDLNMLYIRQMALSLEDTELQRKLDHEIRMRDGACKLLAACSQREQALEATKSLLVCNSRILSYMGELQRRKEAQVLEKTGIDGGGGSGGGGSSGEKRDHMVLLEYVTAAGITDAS
# B1: GFP10-RhoB (wild-type RhoB fused to GFP10) (other)
# chain: MGDLPDDHYLSTQTILSKDLNIDGGGGSGGGGSSGAAIRKKLVVVGDGACGKTCLLIVFSKDEFPEVYVPTVFENYVADIEVDGKQVELALWDTAGQEDYDRLRPLSYPDTDVILMCFSVDSPDSLENIPEKWVPEVKHFCPNVPIILVANKKDLRSDEHVRTELARMKQEPVRTDDGRAMAVRIQAYDYLECSAKTKEGVREVFETATRAALQKRYGSQNGCINCCKVL
# Target: T1, Rho-binding domain of Rhotekin …
# Experiment: cell-based or functional assay
binder,measurement,value
B1,induction factor of fluorescent cells after stimulation with serum,1.6 fold
same,reduction factor of fluorescent cells upon VAV2 downregulation,2.5 fold
same,split-GFP fluorescence after serum stimulation (time-lapse),~2 fold
